The results in this text go back to the RNAGym collection of RNA variant scans (doi:10.7554/elife.90254).

The chains are these.
B1: OR4K15 (parent)
chain: GUUAACGGUCAUAGGCCAUGGAAACUAGGAGCACCAUUUCGCUGCCAGUGAAGAAAUGAACAAAGAAAAUCUGGGCCAGGCAGGCAUCAAAAGAAAUAGUCUUGCGCUCAACCAGAAAGUCUGUAAUCAUUUUAAGGGUA

The source gives no read counts; variants with many changes may rest on few reads.

Variants of B1 are the subject of the data set. Put plainly: self-cleavage, relative activity (ratio to wild type); higher = more cleavage; in vitro, sequencing; the parent is a self-cleaving ribozyme.
On to GUUAACGGUCAUAGGCCAUGGAAACUAGGAGCACCAUUUCGCCGCCAGUGAAGAAAUGAACAAAGAAGAUCUAGGCCAGGCAGGCAUCAAAAGAAAUAGUCUUGCGCUCAACCAGAAAGUCUGUAAUCAUUUUAAGGGUA [U43C A68G G73A], for which the self-cleavage is 0.28. Consider GUUAACGGUCAUAGGCCAUGGAAACUAGGAGCACCAUUUCGCCGCCAGUGAAGAAAUGAACAGAGAAAAUCUGGGCCAGGCAGGCAUCAAGAGAAAUAGUCUUGCGCUCAACCAGAAAGUCUGUAAUCAUUUUAAGGGUA [U43C A63G A91G], for which the self-cleavage was 1.05. GUUAACGGUCAUAGGCCAUGGAAACUAGGAGCACCAUUUCGCCGCCAGUGAAGAAAUGAACAAAGAAGAUCUGGGCCAGGCAGGCUUCAAAAGAAAUAGUCUUGCGCUCAACCAGAAAGUCUGUAAUCAUUUUAAGGGUA [U43C A68G A86U]: the self-cleavage is 1.86. Regarding GUUAACGGUCAUAGGCCAUGGAAACUAGGAGCACCAUUUCGCCGCCAGUGAAGAAAUGAACAAAGAAGAUCUGGGCCAGGCAGGCAUCAAAAGAAAUAGUCUUGCGCUCAACCAGAAAGUCUGUAACCAUUUUAAGGGUA [U43C A68G U127C], the self-cleavage came to 1.07. Turning to GUUAACGGUCAUAGGCCAUGGAAACUAGGAGCACCAUUUCGCCGCCAGUGAAGAAAUGAACAAAGAAAGUCUGGGCCAGGCAGGCAUCAAGGGAAGUAGUCUUGCGCUCAACCAGAAAGUCUGUAAUCAUUUUAAGGGUA [U43C A69G A91G A92G A96G], the self-cleavage stood at 0.52. With GUUAACGGUCAUAGGCCAUGGAAACUAGGAGCACCAUUUCGCCGCCAGUGAAGAAAUGAACAAAGAAAGUCUGGGCCAGGCAGGCAUCAAAAGAAAUGGUCUUGCGCUCAACCAGAGGGUCUGUAAUCAUUUUAAGGGUA [U43C A69G A98G A117G A118G], the self-cleavage stood at 0.19. As for GUUAACGGUCAUAGGCCAUGGAAACUAGGAGCACCAUUUCGCCGCCAGUGAAGAAAUGAACAAAGAAAAUCUGGGCCAGGCAGGCAUCAAAAGGAAUAGUCUUGCGCUCAACCAGAAAGUCUGCAAUCACUUUAAGGGUA [U43C A94G U124C U130C], the self-cleavage came out at 0.48. The result for GUUAACGGUCAUAGGCCAUGGAAACUAGGAGCACCAUUUCGCCGCCAGUGAAGAAAUGAACAAAGAAAGUCUGGGACAGGCAGGCAUCAAAAGAAAUAGUCUUGCGCUCAACCAGAAAGUCUGUAAUCAUUCUAAGGGUA [U43C A69G C76A U132C] reads 0.09; that for GUUAACGGUCAUAGGCCAUGGAAACUAGGAGCACCAUUUCGCCGCCAGUGAAGAAAUGAACAAAGAGAAUCUGGGCCGGGCAGGCAUCAAAAGAAAUAGUCUUGCGCUCAACCAGAAAGCCUGUAAUCAUUUUAAGGGUA [U43C A67G A78G U120C], 0.14; that for GUUAACGGUCAUAGGCCAUGGAAACUAGGAGCACCAUUUCGCCGCCAGUGAAGAAAUGAACAAAGAAAAUCUGGGCCAGGCAGGCAUCAAAAGAAAUAGUCUUGCGCUCAACCAGAAAGUCUGUGAUCAUUUUGAGGGUA [U43C A125G A134G], 0.58. As for GUUAACGGUCAUAGGCCAUGGAAACUAGGAGCACCAUUUCGCCGCCAGUGAAGAAAUGAACAAAGAAAAUCUGGGCCAGGCAGGCAUCAAAAGGAAUAGUCUUGCGCUCAACCAGAAAGUCUGUAAUCAUUUUAUGGGUA [U43C A94G A135U], the figure is 0.12; as for GUUAACGGUCAUAGGCCAUGGAAACUAGGAGCACCAUUUCGCCGCCAGUGAAGAAAUGAACAAAGAAAAUCUGGGCCAGGCAGGCAUCAGAAGAAAUAGUCUUGCGCUCAACCAGAAAGUCUGUAAUCAUUCUAAGGGUA [U43C A90G U132C], 0.97.

Turning to GUUAACGGUCAUAGGCCAUGGAAACUAGGAGCACCAUUUCGCCGCCAGUGAAGAAAUGAACAAAGAAAAUCUGGGCCAGGCAGGCAUCAAAAGAAGUAGUCUUGCGCUCAACCAGAAAGUCUGUAAUCAUUUUAAGGAUA [U43C A96G G138A], the self-cleavage was 1.89.

As to GUUAACGGUCAUAGGCCAUGGAAACUAGGAGCACCAUUUCGCCGCCAGUGAAGAAAUGAACAACGAAAAUCUGGGCCAGGCAGGCAUCAAAAGAAAUAGUCUUGCGCUCAACCAGAAGGUCUGUAAUCAUUUUAAGGGUA [U43C A64C A118G], the self-cleavage stood at 2.16.

For the variant GUUAACGGUCAUAGGCCAUGGAAACUAGGAGCACCAUUUCGCCGCCAGUGAAGAAAUGAACAAAGAAAAUCUGGGCCAGGCAGGCAUCAAAAGAAUUAGUCUUGCGCUCAGCCAGAAAGUCUGUAAUCAUUUUAAGGGUA [U43C A96U A111G], the self-cleavage is 0.01. Regarding GUUAACGGUCAUAGGCCAUGGAAACUAGGAGCACCAUUUCGCCGCCAGUGAAGAAAUGAACAAAGAAAAUCUGGGCCAGGCAGGCAUCGAAAGAAAUAGUCUUGCGCUCAACCAAAAAGUCUGUAAUCAUUUUAAGGGUA [U43C A89G G115A], the self-cleavage stood at 0.34.

Turning to GUUAACGGUCAUAGGCCAUGGAAACUAGGAGCACCAUUUCGCCGCCAGUGAAGAAAUGAACAAAGAAAAUCUGGGCCAGGCAGGCAUCAAGGGAAAUAGUCUUGCGCUCGACCAGAAAGUCUGUAAUCAUUUUAAGGGUA [U43C A91G A92G A110G], the self-cleavage was determined as 0.06. As for GUUAACGGUCAUAGGCCAUGGAAACUAGGAGCACCAUUUCGCCGCCAGUGAAGAAAUGAACAAGGAAAAUCUGGGCCAGGCAGGCAUCAAAAGAAAUAGCCUUGCGCUCAACUAGAAAGUCUGUAAUCAUUUUAAGGGUA [U43C A64G U100C C113U], the self-cleavage is 0.16. Regarding GUUAACGGUCAUAGGCCAUGGAAACUAGGAGCACCAUUUCGCCGCCAGUGAAGAAAUGAACAAAGAAAGUCUGGGCCAGGCAGGCAUCAAAAGAAAUAGUCUUGCGCUCAACCAGAAGGUCUGUAAUCAUUUUAAGGGUA [U43C A69G A118G], the self-cleavage came to 0.76. For GUUAACGGUCAUAGGCCAUGGAAACUAGGAGCACCAUUUCGCCGCCAGUGAAGAAAUGAACAAAGAAAAUCUGGGCCAGGCAGGCGUCAAAUGAAAUAGUCUAGCGCUCAACCAGAAAGUCUGUAAUCAUUUAAAGGGUA [U43C A86G A92U U103A U133A], the self-cleavage is 0.11.
